# From article PMC12040169 (PLOS Biology, 2025)
# Some of the results follow.
# Tested on: T1, C. trachomatis L2/434/Bu expressing GFP (CTL2-GFP)
# T1 construct: L2/434/Bu GFP intracellular growth in HeLa cells
# Set-up: species or system HeLa; C. trachomatis total inclusion area by high-content imaging, normalised to DMSO
# Conditions: total inclusion area; 28.5 h, 10 µM; inhibitor
# Summary of the method: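 Bulk GFP and resorufin signals were read first. Wells were then fixed, stained with Hoechst and imaged to detect GFP inclusions and host nuclei. MICs followed the previously described calculation.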
row,Structure (SMILES),% of control remaining
1,O=C(Nc1cccc(F)c1C(=O)Nc1ccc(F)cc1F)c1cccs1 [CBK066849],97.1342
2,c1ccc(-c2n[nH]cc2-c2cncn2CCCN2CCCCC2)cc1 [CBK281464],103.193
3,O=c1n(-c2ccc(OC(F)(F)F)cc2)ccn1S(=O)(=O)c1ccc(Cl)c(Cl)c1 [CBK106656],88.2743
4,CCOCCCNC(=O)c1ncoc1-c1ccc(F)cc1 [CBK282353],69.4558
5,N#Cc1c(Oc2cccc(Cl)c2Cl)cccc1C(F)(F)F [CBK002592],84.5691
6,O=C(O)c1ccc(-c2ccc(/C=C/c3[nH]c(=O)[nH]c(=O)c3[N+](=O)[O-])o2)cc1Cl [CBK267139],124.874
7,CN1CCN(NC(=O)C23CCC(C)(C(=O)O2)C3(C)C)CC1 (centres unmarked) [CBK268285],100.193
8,CC(=O)Nc1ccc(CN(C)c2c(C)nc3c(OCc4ccc(C(F)(F)F)cc4)cccn23)cc1 [CBK147380],84.0982
9,O=C(CN1C(=O)C2C3C=CC(C3)C2C1=O)NCc1ccco1 (centres unmarked) [CBK265116],100.857
10,Cc1nnc(SCC(=O)N2CCCN(c3ccc(F)cc3)CC2)s1 [CBK306908],43.557
11,O=C(CSc1nnc(-c2ccccc2)n1-c1ccccc1)N/N=C/c1cccc2cccnc12 [CBK262863],97.8396
12,CN(C)CCN(C)C(=O)c1cc(Br)cnc1N(C)S(C)(=O)=O [CBK076476],76.835
13,Cc1ccc(OC(C)C(=O)Nc2ccccc2C(=O)N2CCN(C)CC2)cc1 (centres unmarked) [CBK269802],84.068
14,Clc1ccc(CN2CCC(Oc3cncc(OCc4cccnc4)n3)C2)cc1Cl (centres unmarked) [CBK084448],93.8455
15,Cc1ncsc1C(=O)N1CCC[C@H](C(=O)c2cccs2)C1 [CBK284260],65.7616
16,Cc1ccc(OCC(=O)Nc2sc(C)c(C)c2C#N)c([N+](=O)[O-])c1 [CBK268162],125.949
17,O=C(O)c1ccc(CCN2CCCC2)nc1 [CBK034220],96.856
18,CC(Cn1cccn1)NS(=O)(=O)c1ccc(N2CCCC2=O)cc1 (centres unmarked) [CBK305606],38.5503
19,Cc1cc2oc(C(=O)Nc3sc4c(c3C#N)CCCC4)c(C)c2cc1C [CBK266301],117.766
20,CCC(NC(=O)CCOC)c1cn2cccnc2n1 (centres unmarked) [CBK306560],67.4374
21,Cc1noc(C)c1CC(=O)NC(CN1CCCCC1)c1ccccc1 (centres unmarked) [CBK281507],88.15
22,CCCOc1ccc(C2(CCCCN3CCCC3)C(=O)Oc3ccc(C(C)(C)C)cc32)cc1 (centres unmarked) [CBK017655C],5.005
23,CC(NC(=O)C1CC=CCC1C(=O)O)C1CC2CCC1C2 (centres unmarked) [CBK027112],71.0008
24,CS(=O)(=O)c1ccc(Cn2ccnc(OC3CCN(C(=O)c4cccc(C#N)c4)CC3)c2=O)cc1 [CBK161810],91.8923
25,COc1ccc(C2CC(c3cccc(Br)c3)Nc3ncnn32)cc1OC (centres unmarked) [CBK294474],101.06
26,CC(C)(C)OC(=O)NCc1ccc(-c2ccc(Nc3cccnc3)nc2)cc1 [CBK037804],111.562

row,Structure (SMILES),% of control remaining
1,Cc1ncsc1CCOc1cccc(C(F)(F)F)n1 [CBK115794],82.8953
2,COc1ccccc1CN1CCCC(c2nc(C)n3ccccc23)C1 (centres unmarked) [CBK283026],86.8977
3,CN(C)C(=O)c1ccc(-c2cnc(N)c(-c3ccc(O)cc3)n2)cc1 [CBK116686],89.5092
4,COC[C@@H]1CCCN1S(=O)(=O)c1ccc(C(C)C)cc1 [CBK200045],133.564
5,CC(=O)N/C(=C/c1ccccc1)C(=O)NCCC(=O)O [CBK264046],84.1733
6,Oc1c(Br)cc2oc3c(c2c1CNc1ccccc1)CCCC3 [CBK160397],86.3152
7,O=S(=O)(NCc1cccnc1)c1ccc(Cl)c(Cl)c1Cl [CBK264032],108.636
8,Cc1ccc(N2CCCC2=O)cc1S(=O)(=O)NC(c1ccccc1)c1ccccc1 [CBK286348],81.7958
9,Cc1ccc(C(=O)NC2CCCCCC2)cc1C [CBK083665],116.306
10,CCN1CCN(Cc2nc3c(c(=O)n(C)c(=O)n3C)n2Cc2c(F)cccc2Cl)CC1 [CBK269236],98.0178
11,O=C(CCn1c(-c2ccncc2)cc2cccnc21)NC1CCCCC1 [CBK282621],111.093
12,O=C(C1CCOCC1)N1CCCC[C@H]2CN(Cc3ccccc3)C[C@H]21 [CBK284839],102.849
13,Cc1ccc(C(C)(C)CC(C)NCc2ccc(Cl)cc2)o1 (centres unmarked) [CBK262873],96.9112
14,COCCC(=O)N[C@H]1CC[C@]2(C)CCC([C@H](C)C(=O)N3CCC(C)CC3)[C@H](O)[C@H]2[C@@H]1C (some centres unmarked) [CBK289451],123.288
15,CS(=O)(=O)Nc1cc(-c2noc([C@@H]3CCCN3Cc3ccc(S(C)(=O)=O)cc3)n2)ccn1 [CBK288890],113.19
16,CC(C)NC(=O)Cn1ccc2ccnc(-c3cccs3)c21 [CBK284732],89.5655
17,Cc1ncc(CN(C)C(C)C(=O)Nc2ccccc2N2CCCC2=O)s1 (centres unmarked) [CBK298274],91.6564
18,O=C(CSc1nnc(Cc2cccs2)n1-c1ccccc1)Nc1ccc(F)c(Cl)c1 [CBK267589],93.2643
19,CCc1nnc(NS(=O)(=O)c2ccc(NC(=S)Nc3ccc(F)cc3)cc2)s1 [CBK050037],23.0064
20,COc1cc2cc3c(N)c(C(=O)N4CCCc5ccccc54)sc3nc2cc1OC [CBK117298],103.581
21,CCOC(=O)c1c(-c2ccccc2)oc2ccc(OCC(=O)NN)cc12 [CBK263826],120.858
22,CC(C)(CC(=O)O)CC(=O)Nc1ccc2c(c1)ncn2CCc1ccccc1 [CBK299768],114.019
23,c1ccc2c(c1)ccn2Cc1ccc(-c2nccnc2-c2nnn[nH]2)cc1 [CBK050821],105.45
24,COc1ccc(Cl)cc1S(=O)(=O)N1CCC(C(=O)NCc2cccnc2)CC1 [CBK269878],86.5106
25,CC(C)(C)OC(=O)NC(C)(C)C(=O)N1C[C@H](C(=O)N2CCC3(CC2)CN(S(C)(=O)=O)c2ccccc23)[C@@H](c2nc3ccccc3s2)C1 [CBK136737],96.5406
26,Cc1cnn(CC(=O)NC(Cc2ccsc2)c2nc(C)cs2)c1 (centres unmarked) [CBK285151],90.7729

row,Structure (SMILES),% of control remaining
1,CCNC(=O)C1(Cc2ccc(-c3ccncc3)cc2)CCN(C(=O)CC2CCCCC2)CC1 [CBK285785],105.692
2,Cn1nc(-c2ccc(F)cc2)cc1[C@H]1CN2CC[C@H]1C[C@@H]2CNC(=O)N1CCOCC1 [CBK289108],95.9115
3,Nc1ncc(-c2ccc(CN3CCOCC3)cc2)nc1-c1ccc(O)cc1 [CBK123798],72.7179
4,Cc1ccc(-n2ncc3c(=O)n(CC(=O)N4CCCCC4)cnc32)cc1 [CBK287532],126.239
5,COc1ccc2c(c1)CC(=O)NC21CCN(CCCCC(C)C)CC1 [CBK039839],96.9186
6,Cc1c(C(=O)CCN(C)C2CC=C(c3ccc(F)cc3)CC2)cnn1CCO (centres unmarked) [CBK023799],101.657
7,CCc1nc2c(C(=O)NCCNC(C)=O)cnn2c(CC)c1Cc1ccc(Cl)cc1 [CBK165730],84.5145
8,CCn1c2ccccc2c2cc(CN3CCN(S(=O)(=O)c4ccc(NC(C)=O)cc4)CC3)ccc21 [CBK264248],106.162
9,Cc1ccc(-c2csc(NC(=O)c3ccc(S(=O)(=O)N4CCOCC4)cc3)n2)cc1 [CBK094024],111.398
10,CCNc1nc(-c2ccc(SCC)cc2)cn2ccnc12 [CBK066489],93.0768
11,O=C(COc1cccnc1)N1CCN(c2ccccc2)CC1 [CBK200210],80.0542
12,COc1ccc2[nH]cc(CCNC(=O)N3CCCC(C(=O)O)C3)c2c1 (centres unmarked) [CBK161351],77.4216
13,C#CCOc1ccc(/C=N/N=C(\N)c2nonc2N)cc1OC [CBK264765],84.4275
14,Cc1ccnc2c1C(=O)C1(CC2)CCN(C(=O)Nc2ccc(F)cc2F)CC1 [CBK059553T],99.8943
15,Oc1ccc(-c2cncc(Nc3cccc(Br)c3)n2)cc1 [CBK107803],91.9813
16,Cc1cc(NC(=O)CCC2CCCCC2)nc2c1c(=O)oc1ccccc12 [CBK291125],81.4058
17,CC(C)[C@H]1CN(Cc2cc(C#N)n(C)c2)C[C@@H]1NC(=O)C1CCC1 [CBK306832],46.2834
18,Cc1ccc(C2=NN(C(=O)CNc3cc(F)cc(F)c3)C(c3ccco3)C2)cc1 (centres unmarked) [CBK297922],93.1239
19,CN(C)CCN1CCN(c2cncc(-c3cccnc3)n2)CC1 [CBK065416],93.1593
20,CNS(=O)(=O)c1cccc2c1CCN(C(=O)NC1CCOC1)C2 (centres unmarked) [CBK306172],129.257
21,O=C(O)C1CCN(c2ncnc3scc(-c4ccccc4)c23)CC1 [CBK076784],103.791
22,O=c1scnn1Cc1nc(-c2ccsc2)no1 [CBK306438],51.2906
23,Clc1cccc(Cl)c1CN(Cc1ccccc1)c1ncnc2[nH]cnc12 [CBK266571],109.205
24,COc1ccc(C(NC(=O)C2CCN(C(=O)OC(C)C)CC2)c2ccccc2C)cn1 (centres unmarked) [CBK059704],94.9363
25,Brc1ccc2[nH]c3c(c2c1)CCNC31CCN(CCOc2ccccc2)C1 (centres unmarked) [CBK083578],46.7706
